# Results reported in PubChem BioAssay AID504333 (National Center for Advancing Translational Sciences (NCATS), 2011).
# Out of some 360,000 compounds screened, about 16,000 (4.4%) were called active. Inconclusive means that the source gave no clear call. Such entries were picked first, then a sample of the others. Calls follow the shape of the dose curve; as a rule, active = well fitted inhibition curve with a large enough effect; inconclusive = small, poorly fitted or top-dose-only effect; inactive = no such curve, though single readings can be large or run the other way. Potencies beside an inconclusive call are fits to weak or partial responses and may not hold up.
# Molecular target: Bromodomain adjacent to zinc finger domain protein 2B (Homo sapiens) (UniProt Q9UIF8)
# Chain of UniProt Q9UIF8 (Q9UIF8 whole entry, looked up, the tested form may be a part): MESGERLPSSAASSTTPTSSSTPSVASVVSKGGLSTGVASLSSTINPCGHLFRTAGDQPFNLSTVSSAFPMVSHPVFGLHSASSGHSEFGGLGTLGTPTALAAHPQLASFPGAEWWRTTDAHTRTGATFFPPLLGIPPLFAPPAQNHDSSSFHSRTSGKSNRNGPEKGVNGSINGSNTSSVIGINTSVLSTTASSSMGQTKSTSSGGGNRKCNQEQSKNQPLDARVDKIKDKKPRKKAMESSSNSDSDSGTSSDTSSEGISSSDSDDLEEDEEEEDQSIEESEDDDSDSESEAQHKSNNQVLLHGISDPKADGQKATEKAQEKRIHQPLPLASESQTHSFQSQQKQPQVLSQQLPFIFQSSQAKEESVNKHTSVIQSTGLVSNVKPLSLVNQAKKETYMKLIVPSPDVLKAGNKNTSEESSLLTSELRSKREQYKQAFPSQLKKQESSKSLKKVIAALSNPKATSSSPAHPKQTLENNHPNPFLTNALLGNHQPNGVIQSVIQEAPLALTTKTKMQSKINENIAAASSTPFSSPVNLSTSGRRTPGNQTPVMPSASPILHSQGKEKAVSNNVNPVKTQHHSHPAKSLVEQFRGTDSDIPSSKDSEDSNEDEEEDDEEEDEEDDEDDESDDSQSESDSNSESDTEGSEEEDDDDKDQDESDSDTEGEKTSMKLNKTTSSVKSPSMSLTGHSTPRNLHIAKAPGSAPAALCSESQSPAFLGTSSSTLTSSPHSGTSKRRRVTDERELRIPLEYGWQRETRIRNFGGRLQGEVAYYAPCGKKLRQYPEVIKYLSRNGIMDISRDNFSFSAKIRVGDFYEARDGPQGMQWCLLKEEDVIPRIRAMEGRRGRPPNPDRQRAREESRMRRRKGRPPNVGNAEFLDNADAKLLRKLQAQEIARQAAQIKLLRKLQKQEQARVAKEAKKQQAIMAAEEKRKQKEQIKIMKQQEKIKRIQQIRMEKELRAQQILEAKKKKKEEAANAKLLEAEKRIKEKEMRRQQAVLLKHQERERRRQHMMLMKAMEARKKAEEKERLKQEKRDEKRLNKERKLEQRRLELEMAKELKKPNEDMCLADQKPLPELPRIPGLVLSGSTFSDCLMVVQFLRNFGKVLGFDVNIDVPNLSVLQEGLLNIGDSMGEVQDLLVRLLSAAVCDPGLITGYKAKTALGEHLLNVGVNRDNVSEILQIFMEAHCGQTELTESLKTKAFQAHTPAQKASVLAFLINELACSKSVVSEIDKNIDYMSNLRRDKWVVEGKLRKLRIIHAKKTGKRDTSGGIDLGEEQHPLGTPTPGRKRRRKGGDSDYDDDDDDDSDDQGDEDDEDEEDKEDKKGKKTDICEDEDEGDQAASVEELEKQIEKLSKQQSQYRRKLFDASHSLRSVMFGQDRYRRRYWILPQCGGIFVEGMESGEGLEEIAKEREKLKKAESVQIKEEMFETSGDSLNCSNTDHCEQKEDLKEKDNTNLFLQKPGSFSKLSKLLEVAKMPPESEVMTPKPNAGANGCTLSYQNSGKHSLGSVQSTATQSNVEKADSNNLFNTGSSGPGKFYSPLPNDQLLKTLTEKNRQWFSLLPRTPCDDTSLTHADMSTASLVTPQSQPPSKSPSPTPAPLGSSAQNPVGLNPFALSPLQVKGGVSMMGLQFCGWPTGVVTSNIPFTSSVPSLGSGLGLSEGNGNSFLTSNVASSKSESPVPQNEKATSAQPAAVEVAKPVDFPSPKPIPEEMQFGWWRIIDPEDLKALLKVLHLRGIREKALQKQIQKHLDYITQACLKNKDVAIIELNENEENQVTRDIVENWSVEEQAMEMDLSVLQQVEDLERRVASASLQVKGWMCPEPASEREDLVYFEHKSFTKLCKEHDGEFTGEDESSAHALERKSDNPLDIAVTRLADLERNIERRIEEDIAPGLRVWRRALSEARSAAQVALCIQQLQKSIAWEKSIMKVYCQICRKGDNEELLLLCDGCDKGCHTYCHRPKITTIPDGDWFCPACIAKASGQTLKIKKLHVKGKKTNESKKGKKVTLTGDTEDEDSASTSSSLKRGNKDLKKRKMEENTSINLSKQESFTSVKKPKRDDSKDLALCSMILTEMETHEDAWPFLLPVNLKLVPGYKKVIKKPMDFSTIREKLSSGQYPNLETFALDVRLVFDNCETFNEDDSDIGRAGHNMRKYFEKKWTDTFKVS
# Test: qHTS Assay for Inhibitors of BAZ2B; also: nearly all actives have a fitted effect of over 60% in size
# Details: AlphaScreen BAZ2B-H3K14Ac peptide displacement; series mostly up to 114 µM
# Outline: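 Inhibition is scored as reduced AlphaScreen emission. The BAZ2B/b-H3(5-23)K14Ac complex (50 nM each) in PBS pH 7.4, 0.01% Tween-20 meets compound (up to 110 uM) for 30 min at RT before bead addition.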
# Potency is read from the fitted curve at half-maximal effect; tags tell the direction and shape of the fitted curve.
row,Compound,Potency
1,COc1cc(/C=C(\C#N)c2nc3ccccc3[nH]2)c([N+](=O)[O-])cc1OCc1ccccc1,"inconclusive: 31.6 µM [inhibitor, partial curve]"
2,O=C1CCCCCCC1Sc1ccccc1[N+](=O)[O-] (stereo unspecified),"inconclusive: 89.1 µM [inhibitor, single point]"
3,O=C(Cn1c(SCCOc2ccccc2Cl)nc2ccccc21)N1CCCCC1,"inconclusive: 39.8 µM [inhibitor, partial curve]"
4,CC1=C(C(=O)Nc2cccc(C(F)(F)F)c2)C(c2ccccn2)n2ncnc2N1 (stereo unspecified),"inconclusive: 89.1 µM [inhibitor, single point]"
5,C/C(=N\Nc1cccc(Cl)c1)c1ccc(-n2ccnc2)cc1,"inconclusive: 39.8 µM [inhibitor, partial curve]"
6,CCOC(=O)C1CCN(Cc2ccc(OC)c(OCc3ccccc3)c2)CC1,active: 56.2 µM
7,COc1ccccc1N1CCN(C(=O)C(C)NC(=O)c2cccc([N+](=O)[O-])c2)CC1 (stereo unspecified),inactive
8,CCN(CC)c1ccc(NC(=O)c2sc3nc(-c4ccccc4)cn3c2C)cc1,active: 7.94 µM
9,COc1ccccc1C(=O)NC(=S)Nc1ccc(Cc2ccncc2)cc1,"inconclusive: 56.2 µM [inhibitor, partial curve]"
10,CN1CCN(C(=O)c2cc3c(ccc4ccccc43)oc2=O)CC1,inactive
11,O=C(/C=C/c1ccc(-c2ccccc2[N+](=O)[O-])o1)c1ccc(F)cc1,active: 22.4 µM
12,COc1cccc(-c2nc(CS(=O)(=O)CC(=O)NCCCc3ccccc3)c(C)o2)c1,"inconclusive: 89.1 µM [inhibitor, single point]"
13,N#CCCN(Cc1cccnc1)C(=S)NC(=O)c1ccco1,"inconclusive: 79.4 µM [inhibitor, single point]"
14,O=C(Cc1ccccc1)NC1CCSc2ccccc21 (stereo unspecified),inactive
15,Cc1ccc2[nH]c3c(c2c1)CCCC3NCCO (stereo unspecified),"inconclusive: 50.1 µM [inhibitor, partial curve]"
16,O=C(O)c1ccc(-n2ccnc2)c([N+](=O)[O-])c1,"inconclusive: 100 µM [inhibitor, single point]"
17,CN(C)CCN1CCc2ccccc21,"inconclusive: 44.7 µM [inhibitor, partial curve]"
18,CCCNS(=O)(=O)c1ccc(CCC(=O)N2CCN(c3ccc(OC)cc3)CC2)cc1,inactive
19,CN1C(=O)/C(=C/c2cc(N=Nc3ccccc3)ccc2O)SC1=S,active: 2.24 µM
20,Nc1c(Cl)cc(C2=NCCn3c2c2ccc(C(F)(F)F)cc2[n+]3[O-])cc1Cl,"inconclusive: 89.1 µM [inhibitor, single point]"
21,Cc1[nH]c2ccccc2c1/C=N/NC(=O)c1cccs1,"inconclusive: 39.8 µM [inhibitor, partial curve]"
22,CCOc1ccccc1N1CCN(C(=O)c2c(-c3ccccc3Cl)noc2C)CC1,"inconclusive: 89.1 µM [inhibitor, single point]"
23,Cc1ccc(C(=O)Oc2ccc(/C=N/NC(N)=O)cc2)cc1,"inconclusive: 79.4 µM [inhibitor, single point]"

row,Compound,Potency
1,O=C(CSc1nnc(CNC(=O)c2ccccc2F)o1)NC1CCCC1,inactive
2,CCOc1ccc(NC(=S)NNC(=O)c2ccc(Br)cc2)cc1,inactive
3,COc1cc(C(c2c(C)[nH][nH]c2=O)c2c(C)[nH][nH]c2=O)ccc1OC(=O)c1ccccc1F,"inconclusive: 79.4 µM [inhibitor, partial curve]"
4,CSc1ccc(CN(C)CCc2ccccn2)cc1,active: 31.6 µM
5,O=C(Nc1ccncc1)c1cccc(S(=O)(=O)N2CCN(c3ccc(F)cc3)CC2)c1,"inconclusive: 79.4 µM [inhibitor, single point]"
6,COc1cc2c(cc1OC)CN(Cc1nc3ccsc3c(=O)[nH]1)CC2,active: 39.8 µM
7,Cc1cccc2c1-c1sc(C(=O)NCCCN3CCN(c4cccc(Cl)c4)CC3)cc1CO2,inactive
8,Cc1ccc(S(=O)(=O)N(C)C)cc1NC(=S)NNC(=O)C(N)=O,inactive
9,Nc1c(Cl)cc2c(c1Oc1ccccc1)C(=O)c1ccccc1C2=O,"inconclusive: 0.708 µM [inhibitor, full curve, poor fit]"
10,N#CC1=C(S)N(c2ccccc2)C(c2ccc(-c3ccccc3Cl)o2)NC1=O (stereo unspecified),"inconclusive: 39.8 µM [inhibitor, partial curve]"
11,NC(=O)C1CCN(c2nc(-c3ccccc3N)cs2)CC1,"inconclusive: 79.4 µM [inhibitor, single point]"
12,Cc1ccc2c(c1)c1c(c(=O)n(-c3ccccc3C)c(=O)n1Cc1ccccc1F)n2C,inactive
13,COC(=O)C1=C(C)N(Cc2ccccc2)C(=NCCCCO)N[C@H]1c1ccccc1,"inconclusive: 89.1 µM [inhibitor, single point]"
14,CC(=O)c1c(C)[nH]c(C(=O)N2CCN(c3ccc(F)cc3)CC2)c1C,"inconclusive: 89.1 µM [inhibitor, single point]"
15,Cc1cc(C=O)c(C)n1-c1ccc(Oc2ccc([N+](=O)[O-])cn2)cc1,"inconclusive: 89.1 µM [inhibitor, single point]"
16,O=C(c1ccco1)N1CCN(Cc2cc(=O)c(OCc3ccc(F)cc3)co2)CC1,inactive
17,Cc1ccc(CN2CCC(n3nccc3NC(=O)c3ccccc3C)CC2)o1,"inconclusive: 89.1 µM [inhibitor, single point]"
18,CCOc1ccc(N=C2NN=C(c3cc(C)n(CC4CCCO4)c3C)CS2)cc1 (stereo unspecified),active: 70.8 µM
19,CCc1nnc(NS(=O)(=O)c2ccc(N/C=C/C(=O)c3ccc(OC)cc3)cc2)s1,"inconclusive: 56.2 µM [inhibitor, single point]"
20,Cc1ccc(C)c(S(=O)(=O)N2CCCC2CNC(=O)c2ccc([N+](=O)[O-])cc2)c1 (stereo unspecified),"inconclusive: 79.4 µM [inhibitor, single point]"
21,COc1ccc(N2CCN(c3oc(COc4ccc(Cl)cc4)nc3C#N)CC2)cc1,active: 3.55 µM
22,O=C(Nc1cccs1)OCCN1CCN(Cc2ccccc2)CCC1=O,inactive
23,COc1ccc(N(C(=O)CNC(=O)c2ccco2)C(C(=O)NC2CCCCC2)c2ccco2)cc1 (stereo unspecified),inactive
